Some of the results follow.

To fix the notation:
T1: UNK ZnF1-3 (human, UniProt Q9C0B0 31-174)
T1 sequence: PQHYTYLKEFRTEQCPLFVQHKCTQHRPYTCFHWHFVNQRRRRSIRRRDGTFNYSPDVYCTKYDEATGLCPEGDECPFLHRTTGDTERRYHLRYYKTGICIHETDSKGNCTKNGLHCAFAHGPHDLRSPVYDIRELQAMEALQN

B1: chr15:73134924:73134925:-_ENSMUSG00000022607_ENSMUST00000110036|mus_mus|motif|central (ssRNA)
RNA: GGGAGUUCUACAGUCCGACGAUCGUCAAAUCUGUACACAGGAGAAAGAAUCUCAAAGAAUUUCAGGAUGCUUUCUUCUCGGUUAAGGUUGGCAAACUGCCUGAAUGUUUGCUGGAUCAGCUUUCUUAGUGUUUUGGCCUUGACCAACAGAGGAUUGAGCAUCA
B2: chr11:215046:215047:+_ENSG00000177963_ENST00000526104|hu_hu|motif|central (ssRNA)
RNA: GGGAGUUCUACAGUCCGACGAUCUUUAUUUCAAGAUGAUGUUUCUGUGGCUAUGUGUGGUAUGUGGUAUAAAUCUCAAUCGGUGGUCACACGAGGGGCAUUUUCCUUGUUGUAAGUGUAGUCUAAACCAGUAGGAAGGAGGUUCAACAGAGGAUUGAGCAUCA
B3: chr8:117868997:117868998:-_ENSG00000164754_ENST00000297338|hu_hu|FALSE|FALSE (ssRNA)
RNA: GGGAGUUCUACAGUCCGACGAUCCACCCCUGCCUCAGAGAGGGCAGGGGGAUCAUCAAAGAUACCGCCAUCAUUAUUACUAAUAAGUUUGUCAUCUAAUAUUCCACCAUCAUUUCCUUCUCCAAAAUUAUCAUCCUUAUAUUGCAACAGAGGAUUGAGCAUCA
B4: chr15:38777322:38777323:+_ENSG00000171262_ENST00000397609|hu_hu|motif|central (ssRNA)
RNA: GGGAGUUCUACAGUCCGACGAUCAGAAAAAAAUGAUUCACAACAACUGCCUACUAAAUACAACUGGAAGUGCCUUUCCCGGUUUUGUAAAAUCGAAUGAAAAACCCACAAAACACAUCCACAGCAAUACAGGUGAGGCAAGGGCAACAGAGGAUUGAGCAUCA
B5: chr10:97366135:97366136:-_ENSG00000059573_ENST00000371224|hu_hu|FALSE|FALSE (ssRNA)
RNA: GGGAGUUCUACAGUCCGACGAUCAUGACUACAUGUGAAAGAAAUAAAAUGUGAAAAGAUUUGUUAAGGAUGACUGGCUCUAGUACCAACUAAAUGCCAAGGGGGACUGUAAGUCACUGAGGUGACACAAAGCAGCCAUGGGUUCAACAGAGGAUUGAGCAUCA
B6: chr3:58389949:58389950:+_ENSMUSG00000075700_ENSMUST00000107924|mus_hu|motif|central (ssRNA)
RNA: GGGAGUUCUACAGUCCGACGAUCCAAGAAGAAAACCAUCAUACAUGCAUAAACCUUAUUUUCUUGGCCCCACUGCCAGAUGCGGGGAGCUUGCAUGCCAAAGAAAGCAAAAGGAUCCUUGCCAACAAUUAUUAAGCCUAUUAACAACAGAGGAUUGAGCAUCA
B7: chr14:100422286:100422287:-_ENSMUSG00000072294_ENSMUST00000097079|mus_mus|motif|central (ssRNA)
RNA: GGGAGUUCUACAGUCCGACGAUCAGGGGAGGUCCUGGCUUUGUUGAUUGACAAGUCCACUGGCUCAGUUUGUGUCUGAAAGUGAUCGGCAGGCAGUGAGUCCUCUGGGGGCUCCCCUUUCACAUUAUUUAGCAAGAGGGGGACCAACAGAGGAUUGAGCAUCA
B8: chr8:104447970:104447971:+_ENSG00000164934_ENST00000297579|hu_hu|hu_hu_hu_mus_False|18_68 (ssRNA)
RNA: GGGAGUUCUACAGUCCGACGAUCAUACACUUCCCUGCUUCGGCUCUUGUCCACAGGAAAGAUUCUAAUAGAUUUAUCAAAGCUGGCAGACACAAAUUCCUUCCCAGUGGGAGAGUAAUCCACAUCAAGUACUGCAGACACGUGCAACAGAGGAUUGAGCAUCA
B9: chr10:7839049:7839050:+_ENSG00000165629_ENST00000356708|hu_hu|FALSE|FALSE (ssRNA)
RNA: GGGAGUUCUACAGUCCGACGAUCCAGCUCUCUCUCAGCUCGGGCAUAUUUUGCUGCCGCUACCAUUUUCAUAGACUUGGUAAUUUUCUGGAUGUUUUUGAUGGACUUUAGUCUCCUGGUGAUAUCUUUCAAAGUUGCCAUAUUCAACAGAGGAUUGAGCAUCA
B10: chr14:102368134:102368135:+_ENSG00000078304_ENST00000445439|hu_hu|hu_hu_hu_mus_True|78_78 (ssRNA)
RNA: GGGAGUUCUACAGUCCGACGAUCAAGAGGCUCCAUGAUCUUCACAAACUCUGAUGGUUCAAUGACAUCUAAAAUUUCUUCUAAUUCAUUUAAGAACAUUACUUCUUUUGGACUGUGAGUCUUUGGCCAGUAUUUGAGAAGUGCCAACAGAGGAUUGAGCAUCA
B11: 51076992_51079696_1372_CDS_ENSG00000066084_ENST00000301180|human|control|control (ssRNA)
RNA: GGGAGUUCUACAGUCCGACGAUCUUUUAGACAAACUUCACUGGUAAGAGCUAAGGCAAUACCACAGCUUCCUAGCAAGAAGCCAAUCUGCUGACCUCCAGCAUCCUUUCUGGUAAGAGGUACCUCUAUAGGCACUGGAAUCACCAACAGAGGAUUGAGCAUCA
B12: chr2:49629323:49629324:+_ENSMUSG00000026764_ENSMUST00000028102|mus_mus|FALSE|FALSE (ssRNA)
RNA: GGGAGUUCUACAGUCCGACGAUCUCAAAUGCAGUCGGCAUUAUAAGCCCCAACCAUAACCACUAUCUUCAAUAACAUUCUAAUCAUCACCCCAACGGCUGGCAGGCAGAGGUUAUUUGUCUAAACCAUCUGGCUGCACUCCUACAACAGAGGAUUGAGCAUCA
B13: chr3:19992450:19992451:+_ENSG00000144566_ENST00000273047|hu_hu|motif|central (ssRNA)
RNA: GGGAGUUCUACAGUCCGACGAUCUUUCACAAAACGAAGCACUAGGCUUGAUUUGCCAACAGCGGACUCUCCCAGAAGUACGGGUUUGAACUGGCAUAUUUUAUUUCCCGUAUUUGGCCCGUUGGGUCUUGUUGCGCCUCGACUCAACAGAGGAUUGAGCAUCA
B14: chr5:145543945:145543946:-_ENSG00000133706_ENST00000545646|hu_hu|hu_hu_hu_mus_True|98_98 (ssRNA)
RNA: GGGAGUUCUACAGUCCGACGAUCCUGAACGGCCAGUGGCGGGAAAUAAUCAAGCCAGUGCUCUGCUUCAGAAAACUUCACUAUGUCGUCAUCAGAGAGCCCAAGGGAUUUCAUAAUGUCCCACUGGUACUUAGAAGAUCCUGCCAACAGAGGAUUGAGCAUCA
B15: chr3:9412954:9412955:+_ENSG00000134077_ENST00000452837|hu_mus|hu_hu_hu_mus_False|58_78 (ssRNA)
RNA: GGGAGUUCUACAGUCCGACGAUCGGUUGAUAUCUCUUCUUUGAUGGCUGGAUUUUCAUAAUAAUCUAAGAUAUGUGAAUCUAAAGCGCUGCUGGCAUGCUUUUUCUUACCAUCUUUCUCAUCUGCUUUGUCUCCUUGUCCACACAACAGAGGAUUGAGCAUCA
B16: chr2:232320318:232320319:-_ENSG00000115053_ENST00000322723|hu_hu|hu_hu_hu_mus_True|28_108 (ssRNA)
RNA: GGGAGUUCUACAGUCCGACGAUCACUGUUGAAGUCUACAAAACCAAACCCUUUGGAAGAACCAGUUUCCCGAUCAGUGACUAUUCUUGCACGAACAGAGCCCUCAAAUGACUCCUUUAAGGUCUCUUCAGUGGUAUCCUCAGACAACAGAGGAUUGAGCAUCA
B17: chr1:76254992:76254993:+_ENSG00000137955_ENST00000319942|hu_hu|motif|central (ssRNA)
RNA: GGGAGUUCUACAGUCCGACGAUCCAGCGUAAGAAUCUGGACAGCACUAAGAGUGUAUAAAAGAUGAGGAUCAUGUCCGAUACGGGCACUUAUUCCACCACAUUCAUGUUGGCAAGACUUAAUAAAUGCCAGAAUCUCUUCUCUCAACAGAGGAUUGAGCAUCA
B18: chr1:58468927:58468928:-_ENSMUSG00000026034_ENSMUST00000148330|mus_mus|mus_mus_mus_hu_False|1_8 (ssRNA)
RNA: GGGAGUUCUACAGUCCGACGAUCAAUUACUGAAAAAGAUGUUCAUUACCUUAGCUAUGUACUUAAUGAACCAAAUUACCCAAACAAAAUAAACAUGGCAAUAUAAAAAUGUUAAGAAUUUACAAAGAUUAAAAGCUAGACUGACAACAGAGGAUUGAGCAUCA
B19: chr14:21833301:21833302:-_ENSG00000092201_ENST00000216297|hu_hu|motif|central (ssRNA)
RNA: GGGAGUUCUACAGUCCGACGAUCAUUGAUGCUGAAAACCAUUCCUUUCUUCAGUUUGUAUUGAUUUUUGCUAUUGAUUACGGGGGAGCCUUCACGGAAUUCAAUUCCCAUCCCAAACCCUAGGUUUUUGGUAAUUUUGUUCAGCAACAGAGGAUUGAGCAUCA
B20: chr4:110384322:110384323:+_ENSG00000138802_ENST00000265175|hu_hu|motif|central (ssRNA)
RNA: GGGAGUUCUACAGUCCGACGAUCGUAUGGUUGGGAGGCACUCGUAUGCAAAUGGGAUGCUGACGAUGCAGCACCUUGGAAAGAUCCGGGAGUGGAUCCCACAAUAUGAGGGGCAGGAGGACCCCUGCUGUACAACUGCUGUGCCAACAGAGGAUUGAGCAUCA
B21: chr12:96259795:96259796:+_ENSG00000139343_ENST00000266735|hu_mus|motif|central (ssRNA)
RNA: GGGAGUUCUACAGUCCGACGAUCGAGGACAUUAUUACACCUUAUUAGAACUUCGCCCAGAUGUCCAGACAGCGCCCCAUCGGUGUACUCUUCUGUAUUUGCAAGCUGCAUGUUCAUGUAGCCAUCCACGGAGACCAGGUAGCCCAACAGAGGAUUGAGCAUCA
B22: chr1:163117127:163117128:-_ENSG00000143248_ENST00000313961|hu_mus|hu_hu_hu_mus_False|68_68 (ssRNA)
RNA: GGGAGUUCUACAGUCCGACGAUCUGCUACAAAGGAUGUAACUCAACUCACAGGGCAACUUUUGGAAGCCUGGCUAAAUGACUACUUGAUUAGCUCCUUAUAAAAUUCAGAGCGCACAAAGCGGGGCAGAGAAUCCUUCUCCAUCAACAGAGGAUUGAGCAUCA

In this assay the target is T1, UNK ZnF1-3. The experiment in a line: nsRBNS (natural sequence RNA bind-n-seq); RBNS binding buffer (assumed for nsRBNS): 25 mM Tris pH 7.5, 150 mM KCl, 3 mM MgCl2, 0.01% Triton X-100, 500 ug/ml BSA, 20 U/ml SUPERase-In, 4 C; UNK is unkempt and MSI1 is Musashi-1; names of the RNAs are library labels; protein concentration not given here; high values mean tight binding.
Molecule B1 gave a binding signal of 0.817 enrichment R. The molecule B2 returned a binding signal of 1.11 enrichment R. In the case of B3 it was 1.25 enrichment R; in that of B4, 1.94 enrichment R; in that of B5, 2.95 enrichment R. Take B6: the binding signal amounted to 1.24 enrichment R.

B7: the binding signal stood at 0.92 enrichment R. Consider B8, for which the binding signal worked out at 1.24 enrichment R.

In the case of B9, the binding signal is 0.49 enrichment R. As for B10, the figure is 0.741 enrichment R; as for B11, 0.649 enrichment R; as for B12, 1.13 enrichment R. Regarding B13, the binding signal worked out at 0.746 enrichment R.

On to B14, for which the binding signal is 1.13 enrichment R. As for B15, the figure is 0.464 enrichment R; as for B16, 0.429 enrichment R; as for B17, 1.17 enrichment R. As to B18, the binding signal amounted to 2.3 enrichment R. B19: the binding signal came out at 0.763 enrichment R. In the case of B20 it was 0.937 enrichment R. Turning to B21, the binding signal amounted to 0.83 enrichment R. As for B22, the figure is 1.15 enrichment R.

Source of the values: paper PMC12136788.
